Results: the supplement of paper PMC4166925
± gives the standard deviation of the averaged measurements. In all, about 33,000 sequences were measured (“E-score (dimensionless, -0.5 to 0.5)”: median about -0.046, highest 2% from about 0.36 on). This is one part of the list.

system: T1, SpTbr T-box DNA-binding domain (GST fusion); test: PBM E-score of 8-mer (E-score (dimensionless, -0.5 to 0.5)); Tbr is Tbrain of the sea star Patiria miniata (Pm) or the sea urchin Strongylocentrotus purpuratus (Sp); higher = stronger binding preference; most listed sequences are background and not binding sites; settings: the construct has about 5 more residues each side
T1 sequence: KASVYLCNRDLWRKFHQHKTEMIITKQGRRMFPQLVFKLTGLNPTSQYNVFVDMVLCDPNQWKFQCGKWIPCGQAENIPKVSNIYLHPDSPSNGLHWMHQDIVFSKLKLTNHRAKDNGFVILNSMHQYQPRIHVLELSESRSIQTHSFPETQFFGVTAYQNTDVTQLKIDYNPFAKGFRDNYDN
How it was run: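 Expression of GST-fused Tbr T-box DNA-binding domains, each holding the full T-box plus roughly five flanking residues, was carried out in BL21 E. coli at 20 °C, with purification by glutathione affinity chromatography. Universal Agilent arrays made double-stranded by primer extension were incubated with the protein at 200 nM in PBS (pH 7.5), then scanned and quantified. All ungapped 8-mers were scored from probe intensities, and each received an enrichment E-score from the Universal PBM Analysis Suite, averaged over duplicate arrays.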

| Sequence | PBM E-score of 8-mer |
| --- | --- |
| TCGGAGCA | -0.0265 ± 0.022 |
| AGCCCGCA | -0.0671 ± 0.0044 |
| ACCTGAGA | 0.189 ± 0.016 |
| CCCTCTAC | -0.151 ± 0.0082 |
| AATGATTC | -0.195 ± 0.0094 |
| GGACCCAC | -0.051 ± 0.038 |
| CACGAGCG | 0.124 ± 0.059 |
| GGCACAAA | -0.107 ± 0.066 |
| GACAAAGA | 0.108 ± 0.038 |
| CAGTGTAA | 0.0331 ± 0.071 |
| CACTCCTC | 0.215 ± 0.021 |
| CTACGACC | -0.343 ± 0.084 |
| AGCTCCGG | -0.218 ± 0.048 |
| AACCATTA | -0.185 ± 0.079 |
| AGGAGCTC | -0.249 ± 0.036 |
| CCGGTCTA | -0.154 ± 0.031 |
| GAGGATGA | -0.0416 ± 0.068 |
| AGACCATC | -0.271 ± 0.04 |
| CAGGTCTA | -0.191 ± 0.055 |
| ACGGAAGA | -0.0847 ± 0.06 |
| ATATTATA | -0.0876 ± 0.021 |
| ATACACCG | -0.0503 ± 0.067 |
| CGGCCTGA | -0.114 ± 0.049 |
| AAGCGGCC | 0.0608 ± 0.058 |
| ATTTAGAA | -0.1 ± 0.019 |

| Sequence | PBM E-score of 8-mer |
| --- | --- |
| CCGTACCG | -0.154 ± 0.024 |
| CTGGTCAA | -0.173 ± 0.0028 |
| CTAGACCA | -0.204 ± 0.026 |
| AAGTCTCA | 0.00419 ± 0.049 |
| CTAATGAA | -0.157 ± 0.12 |
| AAAGATAG | -0.189 ± 0.0066 |
| AACGCATC | -0.0722 ± 0.077 |
| AGTTAAGC | -0.128 ± 0.015 |
| ACTAACAC | 0.402 ± 0.0071 |
| CGCGAAAA | 0.347 ± 0.04 |
| CCTAATCG | -0.0735 ± 0.03 |
| CTTTTGAA | -0.19 ± 0.05 |
| CTTGGAGA | 0.0481 ± 0.051 |
| ATAATACG | -0.164 ± 0.022 |
| AACGGAAA | -0.181 ± 0.007 |
| CAGGCCCG | -0.165 ± 0.031 |
| CACTCACG | 0.266 ± 0.052 |
| ACATACTG | 0.177 ± 0.032 |
| CGGTGCTC | -0.153 ± 0.061 |
| AGTCTCGA | 0.0678 ± 0.057 |
| CTTCTCCC | -0.0328 ± 0.015 |
| GTCCAGCA | -0.295 ± 0.06 |
| CTGATACC | -0.127 ± 0.061 |
| AGAAATCG | -0.0204 ± 0.017 |
| GACTCATA | -0.127 ± 0.03 |

| Sequence | PBM E-score of 8-mer |
| --- | --- |
| CGGCGCTC | 0.0305 ± 0.016 |
| TCGCGTAA | 0.222 ± 0.071 |
| AGTCCCCG | -0.205 ± 0.0044 |
| AGTGAGAT | 0.287 ± 0.033 |
| AATTGATC | 0.105 ± 0.036 |
| CCGCTGGC | -0.00683 ± 0.0067 |
| GAAACACC | 0.256 ± 0.012 |
| CATAAGGG | -0.134 ± 0.055 |
| GCCCACTA | -0.0422 ± 0.07 |
| AGCCTATA | -0.0951 ± 0.011 |
| AGGGTCGG | -0.106 ± 0.043 |
| AGAGCACT | -0.101 ± 0.045 |
| CGGGTATA | 0.00404 ± 0.063 |
| CCCTTGCG | -0.0683 ± 0.034 |
| ATGCGTAA | 0.0126 ± 0.018 |
| TATACCCA | -0.25 ± 0.027 |
| CGCAAGTC | 0.125 ± 0.012 |
| AGTGTATC | -0.00438 ± 0.0012 |
| ATGACCGA | -0.037 ± 0.011 |
| CTACCCGA | -0.189 ± 0.061 |
| AGAGGCGG | -0.0721 ± 0.049 |
| AAACTCTG | -0.0161 ± 0.031 |
| CGGGCACC | -0.0494 ± 0.071 |
| AAAAGTTC | -0.0424 ± 0.077 |
| ATTTTCTA | -0.243 ± 0.068 |

| Sequence | PBM E-score of 8-mer |
| --- | --- |
| GGTACCAA | -0.0861 ± 0.086 |
| TAGTGAAA | 0.117 ± 0.023 |
| CGTACTAG | -0.118 ± 0.054 |
| GGACCTTA | -0.142 ± 0.051 |
| CCCTAGGC | -0.0753 ± 0.015 |
| CACTGTCC | -0.0715 ± 0.022 |
| AACTGATA | 0.139 ± 0.039 |
| CTGCAACC | -0.0536 ± 0.021 |
| CATTTGAA | -0.2 ± 0.012 |
| CTCTCCGC | -0.0588 ± 0.019 |
| GTACTTTA | -0.0653 ± 0.064 |
| CCCAGCCG | -0.155 ± 0.011 |
| AATAGATG | 0.0328 ± 0.094 |
| GTTAGTTA | 0.0799 ± 0.077 |
| CGTGCTGC | 0.0546 ± 0.012 |
| GCCGAGCC | 0.0327 ± 0.056 |
| ACACTCGA | 0.283 ± 0.032 |
| AAAAGGGC | 0.0135 ± 0.081 |
| AGGTAGAA | -0.0573 ± 0.049 |
| CGAGTTGA | 0.141 ± 0.015 |
| GCACGGAA | -0.0749 ± 0.024 |
| GCGCATCA | 0.00186 ± 0.0034 |
| AAAGGTGC | 0.414 ± 0.01 |
| GGGACTAA | -0.279 ± 0.029 |
| AGCTGCTC | -0.0138 ± 0.042 |

| Sequence | PBM E-score of 8-mer |
| --- | --- |
| CAGCTTAC | 0.0578 ± 0.022 |
| ATCGTACC | -0.157 ± 0.03 |
| AAGTCCAA | -0.256 ± 0.05 |
| CACGCAAA | 0.191 ± 0.0077 |
| AATTTCCA | -0.179 ± 0.038 |
| GGTAGGCA | -0.079 ± 0.028 |
| TACAGGGA | -0.244 ± 0.025 |
| AAGCGACC | -0.243 ± 0.02 |
| CGTCGGAC | 0.0309 ± 0.014 |
| AACGACCA | 0.0727 ± 0.019 |
| GGGGGCTA | -0.158 ± 0.037 |
| AGAACTGG | -0.118 ± 0.044 |
| GGAGGACA | -0.196 ± 0.045 |
| ATGCTTCA | -0.077 ± 0.031 |
| AATGGCAT | 0.0574 ± 0.0016 |
| AATACTGA | -0.0577 ± 0.0093 |
| GGACCAGA | -0.246 ± 0.0026 |
| TAAGACCA | -0.135 ± 0.052 |
| ACATACGG | 0.0524 ± 0.05 |
| GGTCTAAA | 0.0571 ± 0.071 |
| CTCCACCA | -0.182 ± 0.078 |
| ACTTTCTA | 0.0124 ± 0.018 |
| GAAACAAC | 0.087 ± 0.018 |
| CGAGCTGC | 0.1 ± 0.054 |
| AATGAGCG | -0.18 ± 0.018 |

| Sequence | PBM E-score of 8-mer |
| --- | --- |
| CGATATCC | -0.0408 ± 0.052 |
| AATTGGTG | 0.0304 ± 0.052 |
| GCGTCCAC | 0.0462 ± 0.046 |
| ACGGCGTC | 0.108 ± 0.059 |
| CGTATAAC | -0.0237 ± 0.03 |
| GCTTAAAA | -0.315 ± 0.029 |
| CATTTCCA | -0.162 ± 0.03 |
| ATACTGCC | -0.236 ± 0.033 |
| CAGTGTCC | -0.0304 ± 0.04 |
| CCACCTTA | 0.213 ± 0.01 |
| GTCAGGAA | 0.13 ± 0.092 |
| ATAGCTTG | -0.0926 ± 0.011 |
| ACGCTGAT | -0.0607 ± 0.083 |
| AACCGGCT | -0.226 ± 0.059 |
| GTAAAATA | -0.282 ± 0.098 |
| CTCGCCCC | 0.132 ± 0.0061 |
| TAGTAAGA | -0.164 ± 0.011 |
| ATAATAAG | -0.00135 ± 0.053 |
| CGGCGGTC | -0.208 ± 0.0038 |
| CCTCACTC | 0.184 ± 0.025 |
| AGGCTAAC | 0.0112 ± 0.063 |
| GTGTTGTA | 0.273 ± 0.065 |
| CAACACCC | 0.433 ± 0.012 |
| AACAAGTC | 0.159 ± 0.088 |
| CTCGGGGA | -0.217 ± 0.017 |

| Sequence | PBM E-score of 8-mer |
| --- | --- |
| AAGACATA | -0.151 ± 0.0036 |
| CTCCAGAA | -0.227 ± 0.033 |
| ACATCTAT | 0.139 ± 0.0045 |
| GGACATAA | -0.0535 ± 0.023 |
| AGCACCCC | 0.27 ± 0.036 |
| CGCGGGAA | 0.166 ± 0.016 |
| GTGAGTTA | 0.115 ± 0.042 |
| AGTGATGA | 0.229 ± 0.033 |
| CTCGCAAG | 0.204 ± 0.032 |
| AGTATTAA | -0.00558 ± 0.076 |
| CAACTGAA | -0.018 ± 0.03 |
| ATGGGGCA | -0.231 ± 0.014 |
| GGAGATCA | -0.114 ± 0.015 |
| ACCCAGGC | -0.115 ± 0.11 |
| CCGCCGAA | -0.127 ± 0.13 |
| CACGGGAC | -0.0856 ± 0.0094 |
| GCCCAAGC | -0.24 ± 0.0088 |
| AATGCGAC | 0.0873 ± 0.0027 |
| GCAGCCGC | -0.0103 ± 0.06 |
| CTAAATTA | -0.0861 ± 0.098 |
| AGTAGCGC | 0.224 ± 0.014 |
| GCTTGGAC | -0.281 ± 0.0098 |
